# The list shows a part of the results. The list includes weakly bound sequences.
# Target: MaxL homodimer (UniProt P61244)
# Experiment: universal protein-binding microarray (PBM)
# Conditions: PBS-based mixture, 10 nM His-tagged protein dimer, 2% milk, 200 ng/uL BSA, 50 ng/uL salmon testes DNA, 0.02% TX-100; detection with Alexa 488 anti-His …; high values mean tight binding; most listed sequences are background and not binding sites; double strand, one strand shown
# UniProt P61244, sequence (P61244 whole entry): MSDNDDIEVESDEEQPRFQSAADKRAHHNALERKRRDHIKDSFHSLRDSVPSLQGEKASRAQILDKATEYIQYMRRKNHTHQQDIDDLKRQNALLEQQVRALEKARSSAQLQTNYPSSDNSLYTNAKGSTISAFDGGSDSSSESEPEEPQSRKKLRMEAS
row,Sequence,binding signal (normalized occupancy)
1,CATATTCA,0.0822
2,CTTAACTA,0.078
3,CCGATGCG,0.0722
4,AAGGGTTG,0.0757
5,AGACAGCC,0.0719
6,ATCGTCGG,0.0733
7,AAGATATC,0.0763
8,ACTACAAT,0.0765
9,AATAAGCC,0.0759
10,AATTTCAG,0.0712
11,AATACTCG,0.0786
12,CACTGGAC,0.0711
13,AATTCAAG,0.0775
14,ATCTCCCC,0.0803
15,CAGGTATC,0.0811
16,GATATCGA,0.0777
17,GGAATACA,0.0768
18,AGCACTAT,0.0773
19,ATCTGATA,0.0812
20,TACGGCAA,0.0763
21,AGCTACCG,0.07
22,CAGAACAA,0.0704

row,Sequence,binding signal (normalized occupancy)
1,CGTTTGCC,0.071
2,TGTCGGAA,0.0763
3,ACATTCCT,0.0765
4,ACCCATCC,0.0838
5,GTGTCTTA,0.0793
6,AACGTGCC,0.096
7,CTCCGGTC,0.0678
8,AGCAACGA,0.0793
9,ACATTGCC,0.076
10,ACGAAGCC,0.0735
11,CGGGAGAA,0.0729
12,TCGGCGCA,0.0734
13,AATCAGGA,0.0732
14,CAAAAATG,0.0779
15,CTCCCACA,0.0801
16,TCAAAGCA,0.0762
17,CAGAACGG,0.068
18,GCAATGGC,0.0733
19,CCCAGTAA,0.0749
20,CTGGGGAC,0.0698
21,ACAGTTCT,0.0739
22,GCAACGCA,0.0727

row,Sequence,binding signal (normalized occupancy)
1,ACGTTTCA,0.0767
2,GCCGCAAC,0.0694
3,AGAGGCCA,0.0702
4,CTTGTACC,0.0814
5,AGTTATGG,0.0782
6,AGTACAGG,0.0787
7,CGTTGAAA,0.071
8,AAACGAAA,0.0705
9,GCGTATAA,0.0755
10,AACGGTCA,0.074
11,CAGACTTA,0.0717
12,GATTCACA,0.0773
13,AAGTTTAG,0.0702
14,GACACGAC,0.0866
15,ACCGTGTC,0.072
16,GATCAGCC,0.0736
17,GTGATCAC,0.0914
18,GTCTTCCA,0.0718
19,AACGGTTG,0.0768
20,ACAAGGCG,0.0714
21,CAAGTTGC,0.0745
22,ATACATTC,0.093

row,Sequence,binding signal (normalized occupancy)
1,GCTTCTTA,0.0746
2,TAAGATTA,0.0724
3,AATACGGA,0.0711
4,ACGCGGCA,0.0795
5,CCTGAGGA,0.0743
6,CCTACACG,0.0847
7,CGTGCCAA,0.0821
8,CCCAACGA,0.0762
9,CCCGAGCC,0.0666
10,ACTAGATA,0.0744
11,CACGCCGC,0.0912
12,AGTATGGA,0.0756
13,CATGGAAA,0.0895
14,ATGGTTGA,0.0815
15,CGGTTAGA,0.0696
16,GGATGAAC,0.0721
17,CCGGATCG,0.0706
18,GCTAGAAC,0.0705
19,GTAATATA,0.081
20,AAATTCAC,0.0767
